Reference: ChEMBL document CHEMBL1201862, “PubChem BioAssay data set” (2004)
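48-hour exposure; five concentrations; linearly interpolated endpoints. Abbreviation: GI50, concentration required for 50% inhibition of growth.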 Active and inactive are the calls of the source. Rule as the data show it: active = GI50 up to about 1.1 µM and inactive = higher. Square brackets hold non-standard residues; d marks the D form. Peptide text beside a SMILES is read from it. * marks the point of attachment. ξ: configuration not given here. ξF = NC(Cc1ccccc1)C(=O)O; Cbz = O=C(OCc1ccccc1)*; Aib = CC(C)(N)C(=O)O; NHNH2 = NN*

test system: NCI-H322M; assay: NCI anticancer screen, dose series, 48 h

Structure (SMILES)	GI50
Cc1ccc(SC(CCC(Sc2ccc(C)cc2)Sc2ccc(C)cc2)Sc2ccc(C)cc2)cc1	inactive: > 100 µM
CC[N+]1(C)CCC(O)(/C=C/c2ccc(Cl)cc2)C(C(=O)/C=C/c2ccc(Cl)cc2)C1 (stereo not given)	inactive: 14.9 µM
Cc1ccc2c(c1)c(=O)c1c(NCCN(C)C)ccc3nnn2c31	inactive: 1.93 µM
Cc1cc(C)c2c(c1)N[S@@](=O)S2	inactive: 69.7 µM
CC(NC1=NCCO1)c1ccccc1Cl (stereo not given)	inactive: > 100 µM
CC1=C(C(=O)NCc2ccccc2)C(c2ccco2)C(C(=O)NCc2ccccc2)=C(C)N1	inactive: 65.5 µM
N#CC1C2CCC3(CC2CCN1C(=O)c1ccccc1)OCCO3 (stereo not given)	inactive: > 100 µM
C1CSCCSCCCSCCSCCCSCCSCCCSCCSC1	inactive: > 100 µM
O=C(Cc1ccccc1)NN1C(=O)C(Cl)C1c1cccc([N+](=O)[O-])c1 (stereo not given)	inactive: > 100 µM
COCCOCCOCCOc1ccc(C(C#N)N(CCc2ccccc2)C(=O)c2cc(C(=O)N(CCc3ccccc3)C(C#N)c3ccc(OCCOCCOCCOC)cc3)cc(C(=O)N(CCc3ccccc3)C(C#N)c3ccc(OCCOCCOCCOC)cc3)c2)cc1 (stereo not given)	inactive: > 100 µM
Cc1nc2sc3cccc(Cl)c3n2c(=O)c1/N=N/c1ccc(Cl)cc1	inactive: > 100 µM
Nc1ccc2c(c1)S(=O)(=O)c1cc(O)ccc1O2	inactive: > 100 µM
CC1(C)N(OC2CCCCO2)C(c2ccccc2)C(c2ccccc2)=[N+]1[O-] (stereo not given)	inactive: > 100 µM
CCN(CC)/[N+]([O-])=N/OCC(C)O (stereo not given)	inactive: > 100 µM
CCOC(=O)N(C)CCC1CC=CC(=O)C1c1cccc(OC)c1OC (stereo not given)	inactive: 29.4 µM
CC(=O)NC1C(OCc2ccccc2)OC(COC(=O)CCCCCNc2ccc([N+](=O)[O-])c3[nH]c4ccc(O)cc4c(=O)c23)C(O)C1OC(C)C(=O)N[C@@H](C)C(=O)N[C@H](CCC(=O)OCc1ccccc1)C(N)=O (stereo not given in full)	inactive: 2.72 µM
CN(C)c1cccc(-c2cc(O)c3cc4c(cc3n2)OCO4)c1	inactive: 2.52 µM
COC(=O)/C=C\S/C(=C(/c1ccccc1)n1ccc(C(=O)OC)n1)c1ccccc1	inactive: 36.2 µM
Cc1ccccc1/N=N/c1ccc(/N=N/c2c(O)ccc3ccccc23)c(C)c1 [SCARLET RED]	inactive: > 100 µM
Nc1ccc(Oc2ccc(C34CC5CC6C3CC3CC4C(C5)C6(c4ccc(Oc5ccc(N)c(O)c5)cc4)C3)cc2)cc1O	inactive: 3.46 µM
C[C@]12CCC[C@H](O)[C@H]1C[C@H](CO)CC2	inactive: > 100 µM
COc1cc(C2C(Cl)C(=O)N2NC(=O)c2ccc(N)cc2)cc(Br)c1O (stereo not given)	inactive: 15.4 µM
CCC1=CC2Cc3nc4cc(Cl)ccc4c(N)c3C(C1)C2 (stereo not given)	inactive: 5.74 µM

Structure (SMILES)	GI50
CCN(CC)CCNC(=O)c1nn(C)c(=S)[nH]c1=S	inactive: > 100 µM
CC(=O)OC/C=C(/C=C/CNC1CCCCC1)OC(C)=O	inactive: 22.5 µM
COc1cc(/C=N/n2c(C)n[nH]c2=O)cc(OC)c1OC	inactive: > 100 µM
Cn1c2c(c3ccccc31)CC1c3c(c4ccccc4n3C)CC21 (stereo not given)	inactive: > 100 µM
Oc1ccc(-c2csc(N/N=C3\NC/C(=C/c4ccc5c(c4)OCO5)S3)n2)cc1O	inactive: 29.9 µM
COc1ccc(-c2oc3cc(O)c(OC)c(O)c3c(=O)c2OC2OC(CO)C(O)C(O)C2O)cc1 (stereo not given)	inactive: > 100 µM
O=C(NCCCCCCNCc1cccc2ccccc12)Nc1cccc2ccccc12	inactive: > 100 µM
N#CC1(c2nc3ccccc3o2)C(=O)C(=O)N(c2ccc(Cl)c(Cl)c2)C(=O)C1=O	inactive: > 100 µM
O=c1/c(=C/c2ccco2)sc2nc3ccccc3n12	inactive: > 10 µM
C[Si](C)(C)/C=C\CCCN1C(=O)CCC1=O	inactive: > 100 µM
CN(C)CCOC1(CC2CCCCC2)CCC(C(C)(C)C)CC1 (stereo not given)	inactive: 6.82 µM
C#CCNC(CSSCC(N)C(=O)O)C(=O)O (stereo not given)	inactive: > 100 µM
CN(C)Cc1cc(C(F)(F)F)ccc1C(O)(c1ccccc1)c1ccccc1	inactive: 13.3 µM
CC(C)(NC(=O)OCc1ccccc1)C(=O)NC(Cc1ccccc1)C(=O)NN (stereo not given) (Cbz-[Aib]-[ξF]-NHNH2)	inactive: > 100 µM
C1CSCCSCCCSC2CCCCC2SC1 (stereo not given)	inactive: > 100 µM
NCc1ccc(-c2ccc(-c3ccc(-c4ccc(CN)s4)s3)s2)s1	inactive: > 100 µM
COC1CC(COCc2ccccc2)CC(OC)O1 (stereo not given)	inactive: > 100 µM
NCCCCC(NC(=O)OCc1ccccc1)C(=O)NCC(N)=O (stereo not given) (HELM PEPTIDE1{[O=C(OCc1ccccc1)[*:2]].[NCCCCC(N[*:1])C(=O)[*:2]].G.[am]}$$$$V2.0)	inactive: > 100 µM
CCC1C(=O)C[C@H]2[C@@H]3C(O)CC4=CC(=O)CC[C@]4(C)[C@H]3CC[C@]12C (stereo not given in full)	inactive: > 50 µM
CCOC(=O)CC[C@H](NC(=O)c1nc[nH]c1[N+](=O)[O-])C(=O)OCC	inactive: > 100 µM
O=C(O)c1cc(-c2ccncc2)nc2ccccc12	inactive: > 100 µM
COc1cc(Nc2cnc3cc(C(F)(F)F)ccc3n2)cc(OC)c1OC	inactive: > 100 µM
C[C@@H]1CCC2C(C)(C)C(/C=C\C=O)C3(C)OC213 (stereo not given in full)	inactive: > 100 µM

Structure (SMILES)	GI50
CCCCC1CC(c2ccc(Cl)cc2)=NO1 (stereo not given)	inactive: > 100 µM
COc1ccc(CCN2COc3ccc4ccc(=O)oc4c3C2)cc1OC	inactive: > 100 µM
COc1ccc(C(=O)c2ccc(-n3c4ccccc4c4ccc5c(c43)C(=O)C=CC5=O)cc2)cc1	inactive: 7.35 µM
CN(CCO)CCCC1COc2ccccc2O1 (stereo not given)	inactive: > 100 µM
COc1cnnc2c(C)c(-c3ccccc3)nn12	inactive: > 75.5 µM
OC[C@@H](O)[C@H](O)[C@H](O)[C@@H](O)C1SCCCS1	inactive: > 100 µM
CCOC(=O)C(NC(=O)CC(C)C)(Nc1ccc(S(=O)(=O)Nc2nc(C)cc(C)n2)cc1)C(F)(F)F (stereo not given)	inactive: > 100 µM
Nc1nc2c(ncn2C2OC(CO)C(O)C2O)c(=O)o1 (stereo not given)	inactive: > 100 µM
COc1ccc(N2C(=O)C3c4[nH]c5ccccc5c4C4CCC(C(C)(C)C)CC4C3C2=O)cc1OC (stereo not given)	inactive: 30.1 µM
[N-]=[N+]=NCc1cccc(Nc2cc(=O)[nH]c(=O)[nH]2)c1	inactive: > 100 µM
Cc1cc(C)nc(NS(=O)(=O)c2ccc(Nc3c4ccccc4nc4c(C(=O)Nc5ccc(S(=O)(=O)N=C(N)N)cc5)cccc34)cc2)n1	inactive: 40.7 µM
Cn1c(=O)cc(NCCc2ccccc2)[nH]c1=O	inactive: 53.1 µM
O=c1cc(CN2CCCCC2)nc2ccc3c(O)cc(CN4CCCCC4)nc3n12	inactive: > 100 µM
CC1C(C#N)(C#N)C(C#N)=C(N)C1(Cl)[N+](=O)[O-] (stereo not given)	inactive: 15.5 µM
CN(C)c1ccc(C=C2C(=O)OC(C)(C)OC2=O)cc1Br	inactive: > 100 µM
CCOC(=O)CCCNC(=O)CCCCC(=O)N(C)C	inactive: > 100 µM
Cc1cn(C2CC(n3cc(Cn4cc(Br)c(=O)[nH]c4=O)nn3)C(CO)O2)c(=O)[nH]c1=O (stereo not given)	inactive: 90.4 µM
CC(C)(C)c1ccc(C(O)(c2ccc(C(C)(C)C)cc2)c2ccc(C(C)(C)C)cc2)cc1	inactive: > 100 µM
NC(=O)CC1OC(=O)Cc2cc3c(c(O)c21)C(=O)c1c(O)cccc1C3=O (stereo not given)	inactive: > 100 µM
CCOC(=O)Nc1nc2cc(Cn3cccc3)ccc2[nH]1	inactive: 4.17 µM
C/C(CC(=O)Nc1ccc(C)c(C)c1)=N\NC(N)=O	inactive: > 100 µM
COC(=O)C1c2cc3c(c(O)c2CCC1(C)O)C(=O)c1c(O)cc2c(c1C3=O)OC1OC2(C)C(O)C(N(C)C)C1O (stereo not given)	active: 0.194 µM
O=C1C(c2ccccc2)=C(c2ccccc2)C(c2ccc(Cc3ccc(C4=C(c5ccccc5)C(=O)C(c5ccccc5)=C4c4ccccc4)cc3)cc2)=C1c1ccccc1	inactive: > 100 µM

Structure (SMILES)	GI50
Cc1ccc2c(c1)CC1(Cc3cccc(C)c3C1=O)C2=O (stereo not given)	inactive: > 100 µM
O=C1CCC(=O)c2ccccc2N1	inactive: > 100 µM
CCCCCOc1ccc(/C=N\c2ccc(CCc3ccc(/N=C/c4ccc(OCCCCC)cc4)cc3)cc2)cc1	inactive: > 100 µM
CN(C)/C=N\c1cccc2c1NSN2	inactive: > 100 µM
CN(C)CCNC(=O)c1cnn(C)c1[N+](=O)[O-]	inactive: > 100 µM
c1cc2nnc1SCCCSc1ccc(nn1)SCCCSc1ccc(nn1)SCCCS2	inactive: > 100 µM
COC(=O)c1ccccc1/C=C1\Cc2cc(C)cc(C)c2C1=O	inactive: > 100 µM
CCSc1s/c(=N/c2ccc(/N=c3\sc(C)c(SC)s3)cc2)sc1-c1ccc(C)cc1	inactive: > 100 µM
Cc1csc(N/C=C2\C(=O)Oc3ccccc3C2=O)n1	inactive: 28.6 µM
C/C(=N/NC(=S)Nc1cccc(C)c1)c1ccccn1	active: < 0.01 µM
C[C@]12CC[C@H](O)CC1=CC[C@@H]1C2CC[C@]2(C)c3n[nH]nc3CC12 (stereo not given in full)	inactive: > 100 µM
Nn1c(CCCCCCCCc2nnc(COc3ccc4ccccc4c3O)n2N)nnc1COc1ccc2ccccc2c1O	inactive: 47 µM
O=C1NCC2(CCN(CC3COc4ccccc4O3)CC2)N1c1ccccc1 (stereo not given)	inactive: > 100 µM
COc1ccc(/C=C\c2cc(OC)c(OC)c(OC)c2)cc1OC	active: 0.279 µM
CC(C)C(=O)Oc1cc2c(=O)oc3c(OC(=O)C(C)C)c(OC(=O)C(C)C)cc4c(=O)oc(c1OC(=O)C(C)C)c2c34	inactive: > 100 µM
O=C1CS[C@@](CC(c2ccc(Cl)cc2)c2ccc(Cl)cc2)(c2ccc(Cl)cc2)N1	inactive: 45.1 µM
Cc1[nH]n(-c2ccccc2)c(=O)c1C(N(CCc1ccccc1)C1=NCC(C)S1)(C(F)(F)F)C(F)(F)F (stereo not given)	inactive: 21.6 µM
COc1cc(/C=C/c2cc(=O)cc(/C=C/c3ccc(O)c(OC)c3)o2)ccc1O	inactive: 38.3 µM
O=c1/c(=C/c2ccccc2[N+](=O)[O-])sc2nc3ccccc3n12	inactive: 44.4 µM
CC1=CCC(=O)[C@]2(C)C(CC(=O)O)[C@]3(C)C4=C(C)C(c5ccoc5)C[C@@H]4O[C@@H]3[C@H](O)[C@@H]12 (stereo not given in full)	inactive: > 100 µM
Cc1cnc2ccc(C)c([N+](=O)[O-])c2c1NCCCN(C)C	inactive: 36.1 µM
